Measured values published in article doi:10.1101/2024.07.26.605305 (bioRxiv, 2024).

Biological target: tau fibril seeds (fibrils of recombinant 4R2N tau, 441-residue isoform) (human, UniProt P10636-8 1-441)
Experiment: cross-linking

binding result: binds
B1: HTRA1^S328A (proteolytically inactive HTRA1, catalytic Ser328 exchanged by Ala), Strep-tagged, […], lacking the mac domain (enzyme)
chain: not shown
